PubChem BioAssay AID1963962 (Molecular Pharmacology Branch, DTP, NCI, 2024)
Not every entry of the source has a single result; some have several. The list is limited to them. There may be further records. Results that share an entry are repeats (runs, samples, wells, individuals or studies). Additions like (4×) give the number of equal values in this list.

Tested on: 967376-340-R-J2-PDC multicell spheroid viability
Assay: Anticancer human tumor 967376-340-R-J2-PDC patient-derived colon adenocarcinoma cell line growth inhibition [PI3K]
Conditions: for viability, T/C: stronger effect = lower value; for IC50: compound alone
Text: Combinatorial screen of targeted agents with the PI3K inhibitors inavolisib, alpelisib, duvelisib, and copanlisib in multi-cell type tumor spheroids
A high-throughput screen of multi-cell type tumor spheroids was designed to identify active combinations of targeted small molecules and PI3K pathway inhibitors. Complex spheroids include a stromal component modeled by human endothelial cells (HUVEC) and fibroblasts modeled by human mesenchymal stem cells (MSCs). The concentration ranges selected for each drug and investigational agent were based upon clinically achievable concentrations if the clinical Cmax of the agent was known.
Compounds. The drugs and investigational agents: inavolisib (NSC800729), alpelisib (NSC765974), duvelisib (NSC772469), copanlisib (NSC816437), ipatasertib (NSC767898), afuresertib (NSC778305), talazoparib (NSC767125), sapanisertib (NSC764658), selumetinib (NSC741078), tovorafenib (DAY101, NSC766906), vemurafenib (NSC761431), ravoxertinib (NSC781343), sotorasib (NSC818433), MRTX1133 (NSC 836407), abemaciclib (NSC 768073), palbociclib (NSC758247), venetoclax (NSC 766270), SY5609 (NSC837396), enzalutamide (NSC755605), and darolutamide (NSC825331), were obtained from the National Cancer Institute (NCI) Developmental Therapeutics Program Chemical Repository. The FDA-approved anticancer drug set is available from the NCI Developmental Therapeutics Program. […] The stock solutions were prepared in dimethyl sulfoxide (DMSO, Sigma-Aldrich, St. Louis, MO, cat. D2650) at 800-fold the tested concentration and stored at -70 degrees C prior to their use. All drugs and investigational agents were tested over a range starting from a high concentration at or near the clinical Cmax and decreasing in half-log increments. If the clinical Cmax for an agent had not been determined, the highest concentration tested was 10 microM.
Cell Culture. All cells were maintained in an incubator at 37 degrees C and 5% CO2 with 95% humidity. The PDC lines were cultured according to standard operating procedures established by the NCI PDMR (https://pdmr.cancer.gov/sops/default.htm). All PDCs were thawed and cultured in Matrigel-coated flasks prepared with a working solution of 1X Ham's F-12 nutrient mix, without supplementation (Invitrogen, Waltham, MA, cat. 11765054), 100 U/mL penicillin-streptomycin (Invitrogen, cat. 15140122), and 2.5% Matrigel (Corning Inc., Corning, NY, cat. 354248) for the first three passages. The 354836-022-R-J1-PDC, 475296-252-R-J1-PDC, and 997726-040-R-J2-PDC lines were cultured in 6A media, which includes advanced DMEM/F-12 (Thermo Fisher Scientific, cat. 12634028), 10 mM HEPES (Thermo Fisher Scientific, cat. 15630080), 1X GlutaMAX supplement (Thermo Fisher Scientific, cat. 35050061), 0.1 mg/mL primocin (InvivoGen, San Diego, CA, cat. ant-pm-2), 10% defined fetal bovine serum, heat inactivated (HyClone Laboratories Inc., Logan, UT, cat. SH30070.03HI), 50% L-WRN conditioned media (ATCC, cat. CRL-3276), 1.25 mM N-Acetyl-L-cysteine (Sigma-Aldrich, cat. A9165), 10 mM nicotinamide (Sigma-Aldrich, cat. N0636), 1X B-27 supplement (Thermo Fisher Scientific, cat. 17504044), 1X N-2 supplement (Thermo Fisher Scientific, cat. 17502048), and 10 microM Y-27632 dihydrochloride (Tocris Bioscience, Bristol, United Kingdom, cat. 1254). The 624824-186-R-J2-PDC line was cultured in 6C/Colon 1B media, which includes all 6A media components plus 50 ng/mL human EGF recombinant protein (Thermo Fisher Scientific, cat. PHG0311). […]

[1] = combination with PI3K inhibitor, run of 06/12/2023
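Also: spheroids exposed to agents for 7 days before read-out.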
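For viability, T/C in this document: luminescence used as surrogate of cell viability.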

CC(Cn1ccc(-c2ccc(C#N)c(Cl)c2)n1)NC(=O)c1cc(C(C)O)[nH]n1 (centres undefined)
viability, T/C (compound alone 10 µM): 82.9, 117, 94.8, 84.6%

Cn1nccc1Nc1nccc(-c2ccn(C(CO)c3ccc(Cl)c(F)c3)c(=O)c2)n1 (centres undefined)
viability, T/C (compound alone 1 µM): 100, 75, 105, 112% | viability, T/C (compound alone 3.16 µM): 68.3, 109, 113, 111%

CC1(C)CCC(Nc2ncc(C(F)(F)F)c(-c3c[nH]c4c(P(C)(C)=O)c(C#N)ccc34)n2)CN1 (centres undefined)
viability, T/C (compound alone 0.1 µM): 75, 90.8, 90.5, 101%

CC1(C)CCC(CN2CCN(c3ccc(C(=O)NS(=O)(=O)c4ccc(NCC5CCOCC5)c([N+](=O)[O-])c4)c(Oc4cnc5[nH]ccc5c4)c3)CC2)=C(c2ccc(Cl)cc2)C1
viability, T/C (compound alone 10 µM): 53.2, 72.1, 91.3, 64.2%

CC(C)n1nc(-c2ccc3oc(N)nc3c2)c2c(N)ncnc21
viability, T/C (compound alone 0.001 µM): 112, 95.3, 89.7, 74.5% | viability, T/C (compound alone 0.01 µM): 78.3, 60.9, 103, 93.4%

C[C@@H](NC(=O)c1ncnc(N)c1Cl)c1ncc(C(=O)Nc2cc(C(F)(F)F)c(Cl)cn2)s1
viability, T/C (compound alone 0.0316 µM): 104, 86.2, 69.4, 108%

CNC(=O)c1ccc(N2C(=S)N(c3ccc(C#N)c(C(F)(F)F)c3)C(=O)C2(C)C)cc1F
viability, T/C (compound alone 0.0316 µM): 95.7, 120, 100, 89.9% | viability, T/C (compound alone 3.16 µM): 121, 111, 99.7, 136%

Cn1cnc2c(F)c(Nc3ccc(Br)cc3Cl)c(C(=O)NOCCO)cc21
IC50: 807 nM, 612 nM, > 3 µM, 2.14 µM | viability, T/C (compound alone 0.3 µM): 69.9, 59.5, 90.2, 81.2% | viability, T/C (compound alone 0.949 µM): 48.8, 44.7, 75.8, 71.1% | viability, T/C (compound alone 3 µM): 20.8, 18.1, 53.3, 41.2%

CC(Nc1ncnc2nc[nH]c12)c1cc2cccc(Cl)c2c(=O)n1-c1ccccc1 (centres undefined)
viability, T/C (compound alone 0.1 µM): 89.1, 84.5, 88, 75.5, 97.3, 112, 96.9, 101% | viability, T/C (compound alone 3.16 µM): 107, 86.4, 82.4, 83.7, 89.5, 110, 102, 95.1% | viability, T/C (compound alone 10 µM): 103, 77.9, 86.8, 84.3, 85.8, 79.4, 106, 88%

Cn1ncc(Cl)c1-c1cc(C(=O)NC(CN)Cc2cccc(F)c2)sc1Cl (centres undefined)
viability, T/C (compound alone 0.1 µM): 104, 91.7, 84.1, 78.5% | viability, T/C (compound alone 1 µM): 65.4, 72.8, 74.9, 104%

CCCS(=O)(=O)Nc1ccc(F)c(C(=O)c2c[nH]c3ncc(-c4ccc(Cl)cc4)cc23)c1F
viability, T/C (compound alone 1 µM): 72.6, 100, 117, 105%

CC(Nc1ccc2c(c1)OCCn1cc(N3C(=O)OCC3C(F)F)nc1-2)C(N)=O (centres undefined)
IC50 [1]: 890 nM, > 1 µM, 809 nM, 777 nM | viability, T/C (compound alone 0.00316 µM): 94.5 (2×), 95.6, 110, 78.8, 84.5, 88.8% | viability, T/C (compound alone 0.01 µM): 89.8, 84.2, 89.1, 82.8, 106, 96.3, 75.8%

C#Cc1c(F)ccc2cc(O)cc(-c3ncc4c(N5CC6CCC(C5)N6)nc(OCC56CCCN5CC(F)C6)nc4c3F)c12 (centres undefined)
viability, T/C (compound alone 0.316 µM): 76.9, 113, 105, 84.9% | viability, T/C (compound alone 1 µM): 78.6, 81.6, 106, 85.6% | viability, T/C (compound alone 10 µM): 86.6, 60.9, 74.7, 67.8%

COc1c(OCCCN2CCOCC2)ccc2c3n(c(=NC(=O)c4cnc(N)nc4)nc12)CCN3
viability, T/C (compound alone 0.00316 µM): 78.8, 77.5, 76.9, 97.7 (2×), 87.2, 90.6, 107%

Cc1nc(NC(=O)N2CCCC2C(N)=O)sc1-c1ccnc(C(C)(C)C(F)(F)F)c1 (centres undefined)
IC50 [1]: > 10 µM, 7.99 µM, 8.88 µM, 9 µM, 6.85 µM, 7.34 µM, 4.57 µM | viability, T/C (compound alone 0.0316 µM): 76.8, 76.5, 97.5, 98, 101, 92.3, 80.5, 68.2%
